The supplement of paper PMC11060735
Where “and” joins values, the source holds several entries; their conditions need not be identical. Identical values can stand only once. Counter-ions that a name gives are not always drawn. Out of some 1,800 compounds screened, about 50 (3%) showed activity. This is one part of the list.

Test system: mouse p16Ink4a+/- lung fibroblasts (INKBRITE, bleomycin-injured)
Assay: percentage of GFP+ (p16Ink4a+) fibroblasts among all cells in well; higher = less depletion of p16Ink4a+ cells, active = 20 or less
Details: 1 µM; 3 days
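Also: fibroblasts sorted 14 days after bleomycin, GFP+ and GFP− mixed 1:1 in 384-well plates (GFP− as in-well control), imaged after Hoechst and NucView530 staining, reference wells lacked compound.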

SMILES	percentage of GFP+
CC(=O)Oc1cc(C(F)(F)F)ccc1C(=O)O [Triflusal]	inactive: 44.5%
Cc1ccc(C(=O)c2cc(O)c(O)c([N+](=O)[O-])c2)cc1 [Tolcapone]	inactive: 47.5%
C[C@H](Cc1cc2c(c(C(N)=O)c1)N(CCCO)CC2)NCCOc1ccccc1OCC(F)(F)F [Silodosin]	inactive: 34.1%
CCOC(=O)c1ccc(NC2CCCCC2)c(N)c1 [Ferrostatin-1 (Fer-1)]	inactive: 54%
O=C1NC(=O)/C(=C/c2ccc(-c3ccc(F)cc3O)o2)S1	inactive: 57.2%
CCc1cc2c(cc1CC)CC(NC[C@H](O)c1ccc(O)c3nc(O)ccc13)C2 [Indacaterol]	inactive: 44.5%
OCC(CO)N[C@H]1C[C@](O)(CO)[C@@H](O)[C@H](O)[C@H]1O [Voglibose]	inactive: 54.3%
O=C(O)Cn1nnc(-c2cc(N3CCC(Oc4cc(F)ccc4Br)CC3)no2)n1	inactive: 45.3%
CN(C)CCN(Cc1ccccc1)c1ccccn1 [Tripelennamine]	inactive: 45.6%
CNC(=O)c1c(F)cccc1Nc1nc(Nc2cc3c(cc2OC)CCN3C(=O)CN(C)C)nc2[nH]ccc12	inactive: 50.1%
COc1c2ccoc2cc2oc(=O)ccc12 [Bergapten]	inactive: 44.6%
Cc1ccc(S(=O)(=O)OCC(=O)Nc2ccc(C(=O)O)c(O)c2)cc1	inactive: 44.4%
CC(=O)Oc1cc2c(s1)CCN(C(C(=O)C1CC1)c1ccccc1F)C2 (configuration not stated) [Prasugrel]	inactive: 49.3%
Nc1ccc(C(=O)O)c(O)c1 [Aminosalicylic Acid]	inactive: 51.1%
CN(C)CCCN1c2ccccc2Sc2ccc(Cl)cc21 [Chlorpromazine Hydrochloride, Chlorpromazine]	inactive: 50.8%
Cn1nnc2c(C(N)=O)ncn2c1=O [Temozolomide]	inactive: 29.2%
C[C@H]1c2cccc(O)c2C(=O)C2=C(O)[C@]3(O)C(O)=C(C(N)=O)C(=O)[C@@H](N(C)C)[C@@H]3[C@@H](O)[C@@H]21 [Doxycycline]	inactive: 48.7% and inactive: 54.2%
COC(=O)[C@H](c1ccccc1Cl)N1CCc2sccc2C1 [Clopidogrel]	inactive: 36.5%
CN1c2ccccc2C(=O)N2CCc3c([nH]c4ccccc34)C21 (configuration not stated) [Evodiamine]	inactive: 30.8%
Cc1ccc(S(=O)(=O)/C=C/C#N)cc1	inactive: 35.5%
Cc1ccc(-c2nn(C(C)(C)C)c3ncnc(N)c23)cc1 [1-Ter-Butyl-3-P-Tolyl-1h-Pyrazolo[3,4-D]Pyrimidin-4-Ylamine]	inactive: 49.9%
O=C1c2c(O)cc(O)cc2O[C@H](c2cc(O)c(O)c(O)c2)[C@H]1O [Dihydromyricetin]	inactive: 41%
CS(=O)(=O)Nc1ccc([N+](=O)[O-])cc1Oc1ccccc1 [Nimesulide]	inactive: 36.5%

SMILES	percentage of GFP+
CC(C)(F)C[C@H](N[C@@H](c1ccc(-c2ccc(S(C)(=O)=O)cc2)cc1)C(F)(F)F)C(=O)NC1(C#N)CC1 [Odanacatib]	inactive: 44.3%
O=C(O)c1ccccc1O [Salicylic Acid]	inactive: 46.6%
CCCCOc1cc(C(=O)OCCN(CC)CC)ccc1N [Oxybuprocaine]	inactive: 43.5%
CN1CC[C@@H](c2c(O)cc(O)c3c(=O)cc(-c4ccccc4Cl)oc23)[C@@H]1CO	inactive: 20.2%
CC(C)c1cnn2c(NCc3ccccc3)cc(NCCCCCCN)nc12	inactive: 34.8%
Cn1cnc(-c2cc3nccc(Oc4ccc(NC(=S)NC(=O)Cc5ccccc5)cc4F)c3s2)c1	inactive: 36.4%
Cc1onc(-c2ccccc2Cl)c1C(=O)N[C@@H]1C(=O)N2[C@@H]1SC(C)(C)[C@@H]2C(=O)O [Cloxacillin]	inactive: 43.1%
CC(C(O)c1ccc(O)cc1)N1CCC(Cc2ccccc2)CC1 (configuration not stated) [Ifenprodil]	inactive: 47%
N=C(N)/N=C(\N)N1CCOCC1 [Moroxydine Hydrochloride]	inactive: 40%
CCOc1nc2cccc(C(=O)O)c2n1Cc1ccc(-c2ccccc2-c2noc(O)n2)cc1 [Azilsartan]	inactive: 52.8%
O=c1cc(-c2ccc(O)cc2)oc2cc(O)cc(O)c12 [Apigenin]	inactive: 37.2%
O=C1c2c(O)ccc(O)c2C(=O)c2c(NCCNCCO)ccc(NCCNCCO)c21 [Mitoxantrone]	inactive: 35.4%
Cc1cncc(CN2CCC(=C3c4ccc(Cl)cc4CCc4cccnc43)CC2)c1 [Rupatadine]	inactive: 37.6%
NC(=O)c1ccc(I)c([N+](=O)[O-])c1 [Iniparib]	inactive: 40.5%
CC[N+](CC)(CC)CCOc1cccc(OCC[N+](CC)(CC)CC)c1OCC[N+](CC)(CC)CC [Gallamine Triethiodide]	inactive: 36%
Cn1cc(C2=C(c3ccc(Cl)cc3Cl)C(=O)NC2=O)c2ccccc21	inactive: 47.8%
CC(C)(Oc1ccc(Cl)cc1)C(=O)OCCOC(=O)c1cccnc1 [Etofibrate]	inactive: 50.4%
O=C(CCc1ccc(O)cc1)c1c(O)cc(O)cc1O [Phloretin]	inactive: 45.6%
CCCC(=O)Nc1ccc(OCC(O)CNC(C)C)c(C(C)=O)c1 (configuration not stated) [Acebutolol]	inactive: 52%
Nc1ncnc2c1c(-c1cnc3[nH]ccc3c1)nn2C1CCCC1	inactive: 22%
CC(=O)O[C@H]1CC[C@@]2(C)C(=CC[C@H]3[C@H]2CC[C@]2(C)C(c4cccnc4)=CC[C@@H]32)C1 [Abiraterone Acetate]	inactive: 31.7%
O=P(O)(O)C(O)(Cn1ccnc1)P(=O)(O)O [Zoledronic Acid]	inactive: 49.5%
CC[C@H]1OC(=O)[C@H](C)[C@@H](O[C@H]2C[C@@](C)(OC)[C@@H](O)[C@H](C)O2)[C@H](C)[C@@H](O[C@@H]2O[C@H](C)C[C@H](N(C)C)[C@H]2O)[C@@](C)(O)C[C@@H](C)[C@@H]2N[C@@H](COCCOC)OC([C@H]2C)[C@]1(C)O [Dirithromycin]	inactive: 47.1%

SMILES	percentage of GFP+
COc1cccc2c1C(=O)c1c(O)c3c(c(O)c1C2=O)C[C@@](O)(C(=O)CO)C[C@@H]3O[C@H]1C[C@H](N)[C@@H](O)[C@H](C)O1 [Epirubicin, Epirubicin Hydrochloride]	inactive: 25.6%
N[C@@]1(C(=O)O)CS(=O)(=O)[C@H]2[C@H](C(=O)O)[C@H]21	inactive: 47.9%
O=C(/C=C\n1cnc(-c2cc(C(F)(F)F)cc(C(F)(F)F)c2)n1)NNc1cnccn1 [Selinexor (KPT-330)]	active: 14.7%
O=C(NOC[C@H](O)CO)c1ccc(F)c(F)c1Nc1ccc(I)cc1F	inactive: 31.7%
CCC(=O)O[C@]1(C(=O)CCl)[C@@H](C)C[C@H]2[C@@H]3CCC4=CC(=O)C=C[C@]4(C)[C@@]3(F)[C@@H](O)C[C@@]21C [Clobetasol Propionate]	inactive: 32.2%
COCCc1ccc(OCC(O)CNC(C)C)cc1 (configuration not stated) [Metoprolol]	inactive: 42.5%
C=CC(=O)Nc1cccc(Sc2nc(Nc3ccc(N4CCN(C)CC4)cc3)ncc2Cl)c1	inactive: 46.3%
CC[C@H]1OC(=O)[C@H](C)[C@@H](O[C@H]2C[C@@](C)(OC)[C@@H](O)[C@H](C)O2)[C@H](C)[C@@H](O[C@@H]2O[C@H](C)C[C@H](N(C)C)[C@H]2O)[C@](C)(OC)C[C@@H](C)C(=O)[C@H](C)[C@@H](O)[C@]1(C)O [Clarithromycin]	inactive: 48.3%
CCOC(=O)OC(C)OC1=C(C(=O)Nc2ccccn2)N(C)S(=O)(=O)c2ccccc21 (configuration not stated) [Ampiroxicam]	inactive: 42.1%
CN1CCC(=C2c3ccccc3C=Cc3ccccc32)CC1 [Cyproheptadine]	inactive: 51.8%
CC[C@@H](C)C[C@@H](C)CCCCCCCCC(=O)N[C@H]1C[C@@H](O)[C@@H](NCCN)NC(=O)[C@@H]2[C@@H](O)CCN2C(=O)[C@H]([C@H](O)CCN)NC(=O)[C@H]([C@H](O)[C@@H](O)c2ccc(O)cc2)NC(=O)[C@@H]2C[C@@H](O)CN2C(=O)[C@H]([C@@H](C)O)NC1=O [Caspofungin Acetate]	inactive: 45.6%
CC(=O)OCC(CCn1cnc2cnc(N)nc21)COC(C)=O [Famciclovir]	inactive: 34%
Clc1ccc(C(Cn2ccnc2)OCc2ccc(Sc3ccccc3)cc2)c(Cl)c1 (configuration not stated) [Fenticonazole Nitrate]	inactive: 34.6%
COc1ccccc1N1CCN(CCN(C(=O)C2CCCCC2)c2ccccn2)CC1	inactive: 47.8%
Cc1onc(-c2ccccc2)c1-c1ccc(S(N)(=O)=O)cc1 [Valdecoxib]	inactive: 49.3%
C=CCc1cc(OC)c(O)c(C(=O)NCCO)c1 [Alibendol]	inactive: 42.5%
COC(=O)N[C@H](C(=O)N1CCC[C@H]1c1nc(-c2ccc(-c3ccc(-c4c[nH]c([C@@H]5CCCN5C(=O)[C@@H](NC(=O)OC)C(C)C)n4)cc3)cc2)c[nH]1)C(C)C [Daclatasvir]	inactive: 33.1%
Cc1cnc(NC(=O)Nc2cc(Br)c(C)cc2OC[C@@H]2CNCCO2)cn1	inactive: 28.6%
COc1ccc(CNC(=O)Nc2ncc([N+](=O)[O-])s2)cc1 [N-(4-Methoxybenzyl)-N'-(5-Nitro-1,3-Thiazol-2-Yl)Urea]	inactive: 43.1%
O=C(O)c1cc(N=Nc2ccc(O)c(C(=O)O)c2)ccc1O [Olsalazine]	inactive: 43.3%
CC(C)C(=O)Oc1ccc(CO)cc1[C@H](CCN(C(C)C)C(C)C)c1ccccc1 [Fesoterodine]	inactive: 34.6%
